# Assay results reported in the supplement of paper PMC4604168 (melanoma cell lines).
# The list shows a part of the results. Many values rest on one well or one pass, so single values are uncertain.
# Tested on: WM1745
# Test: cell count relative to DMSO control; melanoma cells; higher = more viable cells
# Details: library dose: standard library concentration; 72 h
# 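Note: cells treated in 1,536-well plates, then fixed and DAPI-stained, with nuclei counted from automated high-throughput microscope images.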
row,Structure (SMILES),cell count [%]
1,"C[C@]12O[C@H](C[C@]1(O)CO)n1c3ccccc3c3c4c(c5c6ccccc6n2c5c31)CNC4=O [Lestaurtinib] + O=C(Nc1cccc(Cl)c1)Nc1ncc(CCNc2ncnc3ccsc23)s1 [SNS314] (first compound 0.02 µM, partner dose 0.004 µM)",69.8
2,"N.N.[Cl][Pt][Cl] [cisplatin] + CO[C@H]1C[C@@H]2CC[C@@H](C)[C@@](O)(O2)C(=O)C(=O)N2CCCC[C@H]2C(=O)O[C@H]([C@H](C)C[C@@H]2CC[C@@H](OCCO)[C@H](OC)C2)CC(=O)[C@H](C)/C=C(\C)[C@@H](O)[C@@H](OC)C(=O)[C@H](C)C[C@H](C)/C=C/C=C/C=C/1C [everolimus] (first compound 8 µM, partner dose 0.1 µM)",118
3,"C[C@]12O[C@H](C[C@]1(O)CO)n1c3ccccc3c3c4c(c5c6ccccc6n2c5c31)CNC4=O [Lestaurtinib] + NC(=O)Nc1cc(-c2cccc(F)c2)sc1C(=O)N[C@H]1CCCNC1 [AZD7762] (first compound 0.02 µM, partner dose 0.1 µM)",68
4,"C[As](C)SC[C@H](NC(=O)CC[C@H](N)C(=O)O)C(=O)NCC(=O)O [Darinaparsin] + Oc1nc(-c2ccc(C(F)(F)F)cc2)nc2c1CSCC2 [XAV939] (first compound 2 µM, partner dose 10 µM)",82.3
5,"C[As](C)SC[C@H](NC(=O)CC[C@H](N)C(=O)O)C(=O)NCC(=O)O [Darinaparsin] + COc1ccc2c(c1)CCC1C2CCC2(C)C(NCCCCCCN3C(=O)C=CC3=O)CCC12 [U73122] (first compound 2 µM, partner dose 2 µM)",92.8
6,"C[C@]12O[C@H](C[C@]1(O)CO)n1c3ccccc3c3c4c(c5c6ccccc6n2c5c31)CNC4=O [Lestaurtinib] + O=C(O)c1ccc(-c2c[nH]c3ncc(-c4ccccc4)cc23)cc1C1CCCC1 [GSK650394] (first compound 0.02 µM, partner dose 0.8 µM)",82.4
7,"Cn1cc(C2=C(c3cn(C4CCN(Cc5ccccn5)CC4)c4ccccc34)C(=O)NC2=O)c2ccccc21 [Enzastaurin] + C=C(c1ccc(C(=O)O)cc1)c1cc2c(cc1C)C(C)(C)CCC2(C)C [Bexarotene] (first compound 4 µM, partner dose 10 µM)",57.4
8,"N.N.[Cl][Pt][Cl] [cisplatin] + CO[C@@H]1[C@H](N(C)C(=O)c2ccccc2)C[C@H]2O[C@]1(C)n1c3ccccc3c3c4c(c5c6ccccc6n2c5c31)C(=O)NC4 [Midostaurin] (first compound 8 µM, partner dose 0.4 µM)",24.1
9,"Cn1cc(C2=C(c3cn(C4CCN(Cc5ccccn5)CC4)c4ccccc34)C(=O)NC2=O)c2ccccc21 [Enzastaurin] + CNC(=O)c1cc(Oc2ccc(NC(=O)Nc3ccc(Cl)c(C(F)(F)F)c3)cc2)ccn1 [sorafenib] (first compound 4 µM, partner dose 2 µM)",59.2
10,"Cn1cc(C2=C(c3cn(C4CCN(Cc5ccccn5)CC4)c4ccccc34)C(=O)NC2=O)c2ccccc21 [Enzastaurin] + CC(C)C[C@H](NC(=O)[C@H](Cc1ccccc1)NC(=O)c1cnccn1)B(O)O [Bortezomib] (first compound 4 µM, partner dose 0.005 µM)",19.1
11,"Cn1cc(C2=C(c3cn(C4CCN(Cc5ccccn5)CC4)c4ccccc34)C(=O)NC2=O)c2ccccc21 [Enzastaurin] + Cc1cc(Nc2cc(N3CCN(C)CC3)nc(/C=C/c3ccccc3)n2)n[nH]1 [ENMD2076] (first compound 4 µM, partner dose 0.2 µM)",11.7
12,"C[As](C)SC[C@H](NC(=O)CC[C@H](N)C(=O)O)C(=O)NCC(=O)O [Darinaparsin] + Cn1cc(/C=C2\C(=O)Nc3cccnc32)c2ccccc21 [GW441756] (first compound 2 µM, partner dose 2 µM)",74.8
13,"C[As](C)SC[C@H](NC(=O)CC[C@H](N)C(=O)O)C(=O)NCC(=O)O [Darinaparsin] + CC(C)(C)c1cnc(CSc2cnc(NC(=O)C3CCNCC3)s2)o1 [SNS-032] (first compound 2 µM, partner dose 0.05 µM)",56.9
14,"N.N.[Cl][Pt][Cl] [cisplatin] + CS(=O)(=O)CCNCc1ccc(-c2ccc3ncnc(Nc4ccc(OCc5cccc(F)c5)c(Cl)c4)c3c2)o1 [lapatinib] (first compound 8 µM, partner dose 4 µM)",88.4
15,"C[C@]12O[C@H](C[C@]1(O)CO)n1c3ccccc3c3c4c(c5c6ccccc6n2c5c31)CNC4=O [Lestaurtinib] + C[C@]1(c2nc3c(C(N)=O)cccc3[nH]2)CCCN1 [Veliparib] (first compound 0.02 µM, partner dose 7 µM)",70.3
16,"Cn1cc(C2=C(c3cn(C4CCN(Cc5ccccn5)CC4)c4ccccc34)C(=O)NC2=O)c2ccccc21 [Enzastaurin] + CN1CCN(c2ccc3nc(-c4c(N)c5c(F)cccc5[nH]c4=O)[nH]c3c2)CC1 [Dovitinib] (first compound 4 µM, partner dose 0.5 µM)",26.2
17,"Cn1cc(C2=C(c3cn(C4CCN(Cc5ccccn5)CC4)c4ccccc34)C(=O)NC2=O)c2ccccc21 [Enzastaurin] + C[C@@H](Oc1cc(-c2cnn(C3CCNCC3)c2)cnc1N)c1c(Cl)ccc(F)c1Cl [Crizotinib] (first compound 4 µM, partner dose 1 µM)",28
18,"C[As](C)SC[C@H](NC(=O)CC[C@H](N)C(=O)O)C(=O)NCC(=O)O [Darinaparsin] + Cc1cc(SCc2sc(-c3ccc(C(F)(F)F)c(F)c3)nc2C)ccc1OCC(=O)O [GW0742] (first compound 2 µM, partner dose 10 µM)",132
19,"C[C@]12O[C@H](C[C@]1(O)CO)n1c3ccccc3c3c4c(c5c6ccccc6n2c5c31)CNC4=O [Lestaurtinib] + O=C(O)c1ccc2c(c1)nc(Nc1cccc(Cl)c1)c1ccncc12 [CX4945] (first compound 0.02 µM, partner dose 2 µM)",69.6
20,"N.N.[Cl][Pt][Cl] [cisplatin] + Clc1ccc(Nc2nnc(Cc3ccncc3)c3ccccc23)cc1 [vatalanib] (first compound 8 µM, partner dose 10 µM)",69.8
21,"Cn1cc(C2=C(c3cn(C4CCN(Cc5ccccn5)CC4)c4ccccc34)C(=O)NC2=O)c2ccccc21 [Enzastaurin] + COc1cc(Nc2ncc(F)c(Nc3ccc4c(n3)NC(=O)C(C)(C)O4)n2)cc(OC)c1OC [Tamatinib] (first compound 4 µM, partner dose 2 µM)",13.8
22,"N.N.[Cl][Pt][Cl] [cisplatin] + COc1cc(Nc2ncc(F)c(Nc3ccc4c(n3)NC(=O)C(C)(C)O4)n2)cc(OC)c1OC [Tamatinib] (first compound 8 µM, partner dose 2 µM)",46.6
23,"C[C@]12O[C@H](C[C@]1(O)CO)n1c3ccccc3c3c4c(c5c6ccccc6n2c5c31)CNC4=O [Lestaurtinib] + Nc1ncn([C@H]2C[C@H](O)[C@@H](CO)O2)c(=O)n1 [decitabine] (first compound 0.02 µM, partner dose 0.5 µM)",74.5
24,"C[As](C)SC[C@H](NC(=O)CC[C@H](N)C(=O)O)C(=O)NCC(=O)O [Darinaparsin] + CCc1ccc(CCOc2ccc(CC3SC(=O)NC3=O)cc2)nc1 [pioglitazone] (first compound 2 µM, partner dose 10 µM)",89.7
25,"C[As](C)SC[C@H](NC(=O)CC[C@H](N)C(=O)O)C(=O)NCC(=O)O [Darinaparsin] + O=C1NC(=O)/C(=C/c2ccc(-c3ccc(F)cc3O)o2)S1 [AS252424] (first compound 2 µM, partner dose 5 µM)",84.7
26,"C[C@]12O[C@H](C[C@]1(O)CO)n1c3ccccc3c3c4c(c5c6ccccc6n2c5c31)CNC4=O [Lestaurtinib] + COc1ccc(Cl)c(Nc2nc3ccccc3nc2NS(=O)(=O)c2cccc(NC(=O)C(C)(C)N)c2)c1 [XL147] (first compound 0.02 µM, partner dose 4 µM)",82.8
27,"Cn1cc(C2=C(c3cn(C4CCN(Cc5ccccn5)CC4)c4ccccc34)C(=O)NC2=O)c2ccccc21 [Enzastaurin] + OCc1c[nH]c2ccccc12 [Indole-3-carbinol] (first compound 4 µM, partner dose 4 µM)",96.2
28,"C[As](C)SC[C@H](NC(=O)CC[C@H](N)C(=O)O)C(=O)NCC(=O)O [Darinaparsin] + O=c1cc(-c2cccc3c2Sc2ccccc2S3)oc(N2CCOCC2)c1 [KU55933] (first compound 2 µM, partner dose 5 µM)",97.2
29,"Cn1cc(C2=C(c3cn(C4CCN(Cc5ccccn5)CC4)c4ccccc34)C(=O)NC2=O)c2ccccc21 [Enzastaurin] + Cc1cc(N2CCOCC2)cc2[nH]c(-c3c(NC[C@@H](O)c4cccc(Cl)c4)cc[nH]c3=O)nc12 [BMS536924] (first compound 4 µM, partner dose 1 µM)",41.6
30,"Cn1cc(C2=C(c3cn(C4CCN(Cc5ccccn5)CC4)c4ccccc34)C(=O)NC2=O)c2ccccc21 [Enzastaurin] + NC(=O)Nc1cc(-c2cccc(F)c2)sc1C(=O)N[C@H]1CCCNC1 [AZD7762] (first compound 4 µM, partner dose 0.1 µM)",30.9
